In PubChem BioAssay AID588342 (National Center for Advancing Translational Sciences (NCATS), 2011):
In all, about 360,000 compounds went through this assay and about 25,000 (6.9%) were called active. Inconclusive results, whose numbers are uncertain, are shown with a selection of clear calls. Calls come from the whole dose curve; as a rule, active = well fitted inhibition curve with a large enough effect; inconclusive = small, poorly fitted or top-dose-only effect; inactive = flat fitted curve, though single readings scatter. A potency beside an inconclusive call is a rough fit, not a confirmed value.

target: Luciferin 4-monooxygenase (Photinus pyralis) (UniProt P08659); experiment: qHTS profiling assay for firefly luciferase inhibitor/activator using purifed enzyme and Km concentrations of substrates (counterscreen for miR-21 project); details: purified FLuc, luminescence inhibition; activity change, negative = inhibition: at 57.5 µM (top of the series); note: nearly all actives have a fitted effect of over 55% in size;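 for activity change, negative = inhibition: plate controls were vehicle for no effect and reference inhibitor for full effect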
Chain of UniProt P08659 (P08659 whole entry, looked up): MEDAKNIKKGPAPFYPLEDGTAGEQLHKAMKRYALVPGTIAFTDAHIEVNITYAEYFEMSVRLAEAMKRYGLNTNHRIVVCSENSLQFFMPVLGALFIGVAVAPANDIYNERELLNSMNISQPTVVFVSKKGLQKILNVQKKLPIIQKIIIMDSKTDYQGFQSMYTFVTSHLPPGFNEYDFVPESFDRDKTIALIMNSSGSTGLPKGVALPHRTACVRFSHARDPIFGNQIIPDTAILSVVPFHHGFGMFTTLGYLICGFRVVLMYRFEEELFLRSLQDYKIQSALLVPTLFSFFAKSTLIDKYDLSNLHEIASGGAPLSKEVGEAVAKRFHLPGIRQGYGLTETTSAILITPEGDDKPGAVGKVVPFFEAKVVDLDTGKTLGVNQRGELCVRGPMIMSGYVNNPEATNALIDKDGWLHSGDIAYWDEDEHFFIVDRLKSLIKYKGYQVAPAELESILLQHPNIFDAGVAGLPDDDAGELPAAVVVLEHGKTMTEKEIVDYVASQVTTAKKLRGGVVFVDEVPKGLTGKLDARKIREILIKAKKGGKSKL
Procedure, shortened: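 Purified P. pyralis luciferase (10nM final) with 10uM D-luciferin and 10uM ATP (Km levels) in 50mM Tris acetate pH 7.5, 10mM Mg acetate, 0.01% Tween-20, 0.05% BSA; qHTS 6-point titration, ~60 µM downward; luminescence read.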
Potency is the fitted concentration of half-maximal effect; tags give direction and shape of the fitted curve.

Row | SMILES | Potency | activity change, negative = inhibition
1 | O=C(O)Cc1coc2ccc3ccccc3c12 | inconclusive: 26.9 µM [inhibitor, partial curve, poor fit] | –
2 | Brc1cccc(C2Nc3cccc4cccc(c34)N2)c1 | inconclusive: 26.9 µM [inhibitor, single point] | –
3 | O=C(Cc1nc2ccccc2[nH]1)c1ccc(Cl)cc1 | active: 6.01 µM | –
4 | CCNc1nc(C23CC4CC(CC(C4)C2)C3)cs1 | inconclusive: 37.9 µM [inhibitor, single point] | –
5 | CCOc1ccc(N=C2SC(C(=O)O)CC(=O)N2C)cc1 (stereo unspecified) | inconclusive: 21.3 µM [inhibitor, partial curve, poor fit] | –
6 | Cc1nc(SCC(=O)Nc2ccc(Br)cc2)[nH]c(=O)c1Cc1ccccc1 | inconclusive: 2.39 µM [inhibitor, partial curve, poor fit] | –
7 | CC(C)c1ccc(-c2csc3nc[nH]c(=O)c23)cc1 | inconclusive: 37.9 µM [inhibitor, partial curve, poor fit] | –
8 | COc1nc(Nc2ccc(C(C)C)cc2)nc(OC)n1 | inconclusive: 30.1 µM [inhibitor, single point] | –
9 | Cc1cc(C)[n+]2[nH]c(N)c(N=Nc3ccccc3)c2n1 | active: 15.1 µM | –
10 | CC1CCN(c2oc(-c3cccc4ccccc34)nc2C#N)CC1 | inconclusive: 2.13 µM [inhibitor, full curve] | –
11 | O=S(=O)(CCc1ccncc1)Cc1ccc2c3c(cccc13)CC2 | – | inactive: 4.48%
12 | CN(C)c1ccc(NS(=O)(=O)c2cc(Cl)ccc2Cl)cc1 | active: 19 µM | –
13 | O=c1c(-c2n[nH]c(=S)o2)cccn1Cc1ccccc1 | inconclusive: 26.9 µM [inhibitor, partial curve, poor fit] | –
14 | Nc1ccc2nc(SCc3ccccc3F)sc2c1 | active: 1.69 µM | –
15 | Cc1ccc(NC(=O)C2CCCN(c3ncccn3)C2)c(C)c1 (stereo unspecified) | inconclusive: 26.9 µM [inhibitor, single point] | –
16 | O=C(OCCCc1cc2ccccc2c(=O)o1)c1ccco1 | inconclusive: 8.49 µM [inhibitor, partial curve, poor fit] | –
17 | COc1ccc(C(=O)COC(=O)CNC(=O)c2cccc(OC(F)F)c2)cc1 | inconclusive: 23.9 µM [inhibitor, single point] | –
18 | COc1cc(C=O)ccc1OC(=O)c1ccc(C(C)C)cc1 | inconclusive: 37.9 µM [inhibitor, single point] | –
19 | CC(C)c1ccc(Nc2c(-c3ccccc3O)nc3cnccn23)cc1 | inconclusive: 33.8 µM [inhibitor, partial curve, poor fit] | –
20 | CCN(CC)c1ccc(C=Nc2cc(C)cc(C)c2)c(O)c1 | inconclusive: 12 µM [inhibitor, partial curve] | –
21 | Cc1ccc2nc(NC(=O)c3cc(=O)c4cc(Cl)ccc4o3)sc2c1 | inconclusive: 16.9 µM [inhibitor, partial curve, poor fit] | –
22 | Cc1cccc(OCC(=O)N2CCN(C(=O)Cc3ccccc3)CC2)c1 | – | inactive: 2.86%
23 | Cn1nc(OC(=O)Nc2cccc(Cl)c2)cc1C(F)(F)F | inconclusive: 26.9 µM [inhibitor, partial curve, poor fit] | –

Row | SMILES | Potency | activity change, negative = inhibition
24 | COc1ccc(/C=N/NC(=S)Nc2cc(C(F)(F)F)ccc2Cl)cc1 | inconclusive: 16.9 µM [inhibitor, partial curve] | –
25 | CC(=O)N1CCc2c(sc3c2c(=O)n(-c2ccc(C)cc2)c(=O)n3CC(=O)Nc2ccccc2)C1 | – | inactive: -10.3%
26 | Cc1cccc2c1NC(=O)/C2=C\C(=O)c1cccs1 | active: 4.78 µM | –
27 | CCOCCCNc1ccc(N2C(=O)CCCC2=O)cc1[N+](=O)[O-] | – | inactive: -1.77%
28 | CCN(C(=O)c1cccc(S(=O)(=O)N(C)C)c1)C12CC3CC(CC(C3)C1)C2 | – | inactive: -2.09%
29 | O=S(=O)(Nc1ccncc1)c1ccc(Cl)c(Cl)c1 | – | inactive: -7.42%
30 | S=C1NC[C@H](c2ccccc2)N1CC1CCCCC1 | – | inactive: 1.38%
31 | Cc1ccc(NC(=O)c2cccc(C(=O)Nc3ccc(C)cc3C(=O)O)c2)c(C(=O)O)c1 | active: 26.9 µM | –
32 | Cc1ccc(Nc2ccc(C(=O)NC3CCCCC3)cn2)cc1 | inconclusive: 9.53 µM [inhibitor, partial curve, poor fit] | –
33 | Cc1ccc(-n2c(SCC(=O)Nc3cccc(Cl)c3)nc3n[nH]c(C)c3c2=N)cc1 | – | inactive: -2.76%
34 | CC1CCN(C(=O)Cn2cnc3c(cnn3C(C)(C)C)c2=O)CC1 | inconclusive: 19 µM [inhibitor, single point] | –
35 | Cc1cccc(-n2c(C)cc(/C=N/NC(=O)c3ccc(CN4CCOCC4)cc3)c2C)c1 | inconclusive: 21.3 µM [inhibitor, partial curve] | –
36 | CC(=O)N1CCCc2ccc(NS(=O)(=O)c3ccc(F)cc3F)cc21 | – | inactive: -3.32%
37 | COc1ccc(NC(=O)c2ccc(NCCN3C(=O)CCC3=O)c([N+](=O)[O-])c2)cc1 | inconclusive: 30.1 µM [inhibitor, partial curve, poor fit] | –
38 | Cc1ccc(Cl)cc1N1CCN(CCNC(=O)Nc2ccc(Cl)cc2)CC1 | – | inactive: -16.6%
39 | CCOc1cc(/C=C2\SC(=Nc3ccc(CC)cc3)NC2=O)ccc1OCC(=O)O | inconclusive: 15.1 µM [inhibitor, partial curve] | –
40 | O=C(NCc1ccccn1)Nc1cccc(NC(=O)NCc2ccccn2)c1 | inconclusive: 23.9 µM [inhibitor, single point] | –
41 | NS(=O)(=O)c1ccc(CNc2ccc3ccccc3n2)cc1 | inconclusive: 30.1 µM [inhibitor, single point] | –
42 | CCOC(=O)/C=c1\s/c(=C\c2ccc(C(=O)OC)cc2)c(=O)n1CC(=O)Nc1ccccc1 | – | inactive: 0.831%
43 | COc1ccc2nc3c(nc2c1)CCCC3 | inconclusive: 21.3 µM [inhibitor, partial curve, poor fit] | –
44 | COc1ccc(CCNC(=O)C2CC(c3ccc([N+](=O)[O-])cc3)=NO2)cc1 (stereo unspecified) | inconclusive: 23.9 µM [inhibitor, single point] | –
45 | CC(C)c1cccc(C(C)C)c1NC(=O)c1ccccc1 | – | inactive: -1.06%
46 | CC(C)c1ccc(-n2ccnc2SCC(=O)O)cc1 | inconclusive: 37.9 µM [inhibitor, single point] | –
